# Data published in PubChem BioAssay AID485344 (National Center for Advancing Translational Sciences (NCATS), 2010).
# Out of some 340,000 compounds screened, about 6,900 (2%) were called active. Cut-off read from the data, not from the text of the source: active = inhibition above about 30%; inactive = below that, where a call was filed. The list shows a part of the results, in another mix than the full data. Entries without a call were filed so in the source.
# Target: D(2) dopamine receptor (Homo sapiens) (UniProt P14416)
# Assay: HTS Assay for Allosteric Antagonists of the Human D2 Dopamine Receptor: Primary Screen for Antagonists; note: 0% is about no effect
# Conditions: HEK293 TREx D2 cells, calcium flux, dopamine EC80; at 10 µM; stronger effect = higher value
# In short: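 Antagonism is scored as inhibition of an EC80 dopamine-evoked calcium signal in a force-coupled, tetracycline-inducible HEK293 T-REx D2 line, with compound present 180 s before agonist.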
# Chain of UniProt P14416 (P14416 whole entry, looked up): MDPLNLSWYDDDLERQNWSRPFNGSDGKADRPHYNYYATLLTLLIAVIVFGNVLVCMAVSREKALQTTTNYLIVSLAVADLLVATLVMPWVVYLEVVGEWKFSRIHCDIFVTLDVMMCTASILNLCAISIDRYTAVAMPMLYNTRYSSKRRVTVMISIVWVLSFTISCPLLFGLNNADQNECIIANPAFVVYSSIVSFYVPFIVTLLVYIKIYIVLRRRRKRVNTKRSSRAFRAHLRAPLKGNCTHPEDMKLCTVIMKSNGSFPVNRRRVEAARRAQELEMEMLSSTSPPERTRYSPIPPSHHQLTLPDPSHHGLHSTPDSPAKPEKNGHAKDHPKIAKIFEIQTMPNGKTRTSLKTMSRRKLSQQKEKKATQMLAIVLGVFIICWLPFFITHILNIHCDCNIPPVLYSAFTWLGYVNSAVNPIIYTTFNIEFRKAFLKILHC
row,Compound,inhibition
1,CCOC(=O)c1cnc2c(ccc3ccccc32)c1Nc1cccc(OC)c1,-7.54%
2,O=C(NCCc1ccccc1)c1cc(S(=O)(=O)N2CCCCC2)c[nH]1,-3.95%
3,Cc1cccc(N(C)S(=O)(=O)c2ccc3c(c2)C(C)(C)C(=O)N3C)c1,active: 40.9%
4,COc1ccc(NC(=O)c2cc(S(=O)(=O)N3CCCC3)cn2C)cc1Cl,active: 38%
5,COc1ccc(-c2nnc(SCC(=O)NCc3ccc(C)cc3)nc2-c2ccc(OC)c(OC)c2)cc1OC,-12.5%
6,O=C(CSc1nc(-c2ccc(F)cc2)[nH]c1-c1ccccc1)NCC1CCCO1 (stereo not drawn),-28.2%
7,COc1ccccc1N1CCN(c2ncccc2-c2nc(-c3ccc(Cl)cc3)no2)CC1,5.67%
8,CN(C)Cc1c(C(=O)Nc2ccccc2)[nH]c2ccccc12,active: 45%
9,CCS(=O)(=O)N1CCC(n2c(C(F)(F)F)nc3cccnc32)CC1,-2.91%
10,CCCCOc1cccc(C2c3c(oc4ccccc4c3=O)C(=O)N2c2ccccn2)c1 (stereo not drawn),1.68%
11,CCc1ccc(C(=O)c2cn(CC(=O)Nc3ccc(OC)c(OC)c3)c3ccc(C)cc3c2=O)cc1,21.8%
12,CCN(CC)c1cc(C)c2cc(NC(=O)c3ccccc3OC)ccc2n1,1.22%
13,Cc1cc(C)c(NC(=O)CSc2nc3nc(C)cc(C)n3n2)c(C)c1,-4.18%
14,CCCCn1c(SCC(=O)NCCCOC)nc2c(sc3ccccc32)c1=O,17.4%
15,CCn1c(=O)c2sccc2n2c(CCCC(=O)N3CCN(c4cc(Cl)ccc4C)CC3)nnc12,-10.9%
16,Nc1cccc(-c2cn3ccsc3n2)c1,-4.97%
17,CCn1nnnc1-c1ccc(OC)c(S(=O)(=O)Nc2ccc(OC)cc2)c1,active: 36.5%
18,Cc1ccc(NC(=O)c2oc3ccccc3c2NC(=O)c2ccccc2C)cc1,-21.2%
19,COc1ccc(Cn2c(=O)c3cccnc3n(Cc3cccc(OC)c3)c2=O)cc1,-0.579%
20,CCOC(=O)c1c(-c2ccccc2)oc2ccc(NS(=O)(=O)c3ccc(C)cc3C)cc12,-2.2%
21,CSc1nnc(NC(=O)Cc2coc3cc(C)ccc23)s1,-7.97%

row,Compound,inhibition
1,CCOC(=O)c1c(-c2ccc(C)cc2)csc1NC(=O)c1nc(SCC)ncc1Cl,-9.84%
2,Cc1ccc(-n2c(=O)c3ccc(C(=O)NCc4ccccc4Cl)cc3n(Cc3ccccc3F)c2=O)cc1,-13.4%
3,COc1cccc(NS(=O)(=O)c2ccc3[nH]cc(C(=O)N4CCCCCC4)c(=O)c3c2)c1,-6.93%
4,CCc1ccc(CN(Cc2cn[nH]c2-c2ccc(OC)cc2)C(=O)Nc2ccc(C)c(F)c2)cc1,-10.8%
5,CCOc1ccc(CNC(=O)c2cc3ccccn3n2)cc1OC,-4.88%
6,Cn1c(=O)c2c(-c3cccc(Br)c3)n(CCO)cc2n(C)c1=O,7.62%
7,CCN1CCN(c2oc(/C=C/c3ccccc3OC)nc2C#N)CC1,14.3%
8,O=c1c2cc3c(cc2nc2sc(Nc4ccc(F)c(Cl)c4)nn12)OCO3,17.6%
9,COc1cc(OC)c(N(C)C(=O)Cn2ncc3c([nH]c4ccccc43)c2=O)cc1Cl,-12.9%
10,CN(Cc1ccccc1)C(=O)C1CCN(S(=O)(=O)Cc2ccccc2)CC1,-18%
11,COc1cc(/C=C(\C#N)c2nc3ccccc3n2C)cc(OC)c1OC,-6.06%
12,Cc1ccc(NC(=O)c2cc(S(=O)(=O)N3CCCC(C)C3)cn2C)c(Br)c1 (stereo not drawn),-17.9%
13,Cc1ccc(CNC(=O)CCc2c(C)nn(-c3ccc(N4CCCCC4)nn3)c2C)cc1,3.01%
14,Cc1ccc(-c2nc3ccccn3c2Nc2ccc3c(c2)OCO3)cc1,-6.27%
15,Cc1csc2nc(-c3cccc(NC(=O)c4ccccc4Cl)c3)cn12,-14.7%
16,CC(C)CN1CCN(Cc2ccc(C#CC(C)(C)O)cc2)CC1CCO (stereo not drawn),active: 33.3%
17,Cc1ccc(S(=O)(=O)NCC(c2ccc(N(C)C)cc2)N2CCOCC2)cc1 (stereo not drawn),5.63%
18,O=C(NC1CCCCCC1)C1CCN(C(=O)N2CCOc3ccccc32)CC1,-21.8%
19,Cc1cccc(OCC(=O)OCc2cc(=O)n3nc(C4CCCCC4)sc3n2)c1,0.131%
20,COc1ccc(C(=O)COC(=O)c2cccc(NC(=O)c3ccc(OC)c(OC)c3)c2)cc1,-11.6%
21,CCOC(=O)C(CC)n1nc(C)n2c(cc3occc32)c1=O (stereo not drawn),-5.41%

row,Compound,inhibition
1,Cc1ccc(-c2nnc(SCc3ccccc3C#N)o2)cc1,-6.65%
2,CCOc1cc(-c2nc3c(c(CC)nn3-c3ccccc3)c3cc(OC)c(OC)cc23)ccc1O,-4.43%
3,COc1cccc(-c2nc(CS(=O)(=O)CC(=O)NCc3ccc(C)cc3)c(C)o2)c1,-7.43%
4,Cc1ccc(CN2C(=O)C(O)(c3c[nH]c4ccccc34)c3cc(Cl)ccc32)cc1 (stereo not drawn),-2.3%
5,Cc1ccc2c(c1)NC(c1cccnc1)=NC(c1ccc(F)cc1)=N2,25.2%
6,COc1ccc(OCC(O)CNCCOc2ccccc2OC)c(C(C)(C)C)c1 (stereo not drawn),active: 71.2%
7,COCCNC(=O)c1c(C)oc2nc(C)nc(N3CCOCC3)c12,-1.78%
8,CCOC(=O)c1c(NC(=O)c2ccccc2Cl)sc2c1CCCC2,3.11%
9,CCOC(=O)c1cccc(NC(=O)c2ccc3c(Cl)c4c(nc3c2)CCC4)c1,12.4%
10,Cc1ccc(NC(=O)Cn2nnc(-c3nc(-c4ccncc4)no3)c2N)cc1,-1.96%
11,CCOc1ccc2nc(C)cc(Nc3ccccc3OCC)c2c1,19.3%
12,CCCOc1ccc(CNC(=O)C(CC)n2nc(C)c3sc4ccccc4c3c2=O)cc1 (stereo not drawn),-1.97%
13,Cc1ccc(C(=O)O)cc1Nc1nc2ccccc2n2nnnc12,0.847%
14,Cc1ccc(Cl)cc1N1CCN(C(=O)CCC(=O)Nc2ccc3nc(N4CCC(C)CC4)cc(C)c3c2)CC1,-6.2%
15,COc1ccccc1N1CCN(C2CCCN(C(=O)c3oc(C)cc3C)C2)CC1 (stereo not drawn),active: 46%
16,COc1ccc(C(CNC(=O)c2cc3c(s2)CCC(C)C3)N2CCCC2)cc1 (stereo not drawn),active: 71.6%
17,NNC(=O)CN1C(c2ccccc2)=Nc2ccc(Br)cc2C1c1ccccc1 (stereo not drawn),active: 81.5%
18,CCOC(=O)c1noc2ncnc(Nc3ccc(F)cc3F)c12,6.15%
19,Cc1cccc(C)c1NC(=O)Cn1c(=O)n(CC2CCC(C(=O)NCCc3ccccc3)CC2)c(=O)c2ccccc21 (stereo not drawn),26.3%
20,CCOC(=O)C1CCN(C(=O)C2CCN(C3=NS(=O)(=O)C(c4ccc(C)cc4)=C3CC)CC2)CC1,-18.9%
21,O=[N+]([O-])c1cc(-c2nc(-c3ccccc3)no2)ccc1N1CCN(c2ccccc2)CC1,6.14%
